B1: LNExM: lintuzumab-exatecan ADC with ExM linker-payload, DAR close to 8; 01/02 are batches (conjugate, chains of the INN, looked up)
heavy: QVQLVQSGAEVKKPGSSVKVSCKASGYTFTDYNMHWVRQAPGQGLEWIGYIYPYNGGTGYNQKFKSKATITADESTNTAYMELSSLRSEDTAVYYCARGRPAMDYWGQGTLVTVSS[letters of human IgG1 constant region left out]
light: DIQMTQSPSSLSASVGDRVTITCRASESVDNYGISFMNWFQQKPGKAPKLLIYAASNQGSGVPSRFSGSGSGTDFTLTISSLQPDDFATYYCQQSKEVPWTFGQGTKVEIKRTVAAPSVFIFPPSDEQLKSGTASVVCLLNNFYPREAKVQWKVDNALQSGNSQESVTEQDSKDSTYSLSSTLTLSKADYEKHKVYACEVTHQGLSSPVTKSFNRGEC
modifications: exatecan ExM linker-payload, DAR 8
notes: lintuzumab-exatecan ADC with ExM linker-payload, DAR close to 8; 01/02 are batches
B2: LNExMu: ADC from lintuzumab antibody and ExMu linker-payload comprising the PABC self-immolative group (conjugate, chains of the INN, looked up)
heavy: B1 heavy
light: B1 light
modifications: exatecan ExMu PABC linker-payload
notes: ADC from lintuzumab antibody and ExMu linker-payload comprising the PABC self-immolative group

Key:
[1] = tested on: CD33+ MOLM-13 leukemia cells; assay: In vitro cytotoxicity assay, Example 4 (FIG. 3B); type: cell-based; conditions: MOLM-13 cells, DAR=8
Description: HER2+ SK-BR-3 breast cancer cells (ATCC) and CD33+ MOLM-13 leukemia cells (DSMZ, German Collection of Microorganisms and Cell Cultures) were cultured essentially according to the providers' instructions. […] FIG. 3A: HER2+ SK-BR-3 breast cancer cells were incubated with trastuzumab-exatecan ADC TRExM01, trastuzumab-deruxtecan ADC TRDxM01 and free exatecan payload (provided as mesylate salt). […] FIG. 3B: CD33+ MOLM-13 leukemia cells were incubated with lintuzumab-exatecan ADC LNExM01 and lintuzumab-deruxtecan ADC TRDxM01.

MOLM-13 cells = assay: MOLM-13 xenograft model
Description: The study was performed at the TCDM, University of Turku, Finland, according to the appropriate ethical committee approval. Cells for inoculation to mice were prepared in vigorous exponential growth phase. 2 million MOLM-13 cells in 50% Matrigel were inoculated s.c. to the flank of each mouse (female athymic nude mice between 8-10 weeks of age). Clinical signs and general behavior of the animals were observed regularly. […] Tumor growth was followed by palpation. After caliper measurement, tumor volume was calculated according to 0.5×length×width^2. […] Mice were evenly divided into study groups, 6 mice in each group, so that each group received similar distribution of different-sized tumors and the average tumor volumes were similar in each group. Intravenous (i.v.) treatment in PBS was given once on day 1 of treatment as a single dose regimen (on day 8 after tumor inoculation). The experiment lasted to day 46 after treatment (day 54 after tumor inoculation).

[2] = Aqueous solubility / attainable concentration of ADC on purification and concentration; type: physicochemical; conditions: aqueous buffer
[3] = single i.v. 10 mg/kg dose, day 54 after inoculation

Molecule	cytotoxicity (in words) [1]	tumor growth inhibition (in words) (MOLM-13 cells; single i.v. 10 mg/kg dose, s.c. tumors about 120 mm^3)	tumor-free mice at the end of the study (mice out of 6) (MOLM-13 cells; [3])	tumor-free mice at the end of the study, % (MOLM-13 cells; [3])	deaths due to tumor growth (mice out of 6) (MOLM-13 cells; single i.v. 10 mg/kg dose, death on day 47 after tumor inoculation)	signs of toxicity (MOLM-13 cells; single i.v. dose, clinical signs and general behavior)	maximum concentration reached in purification and concentration attempts [2]
B1	more cytotoxic to the CD33+ leukemia cells than LNDxM01	even more effective than LNDxM in reducing the average tumor volumes	5/6	83%	no deaths occurred	No signs of toxicity were recorded	
B2							0.36 mg ADC/ml
